Laboratory results reported in the supplement of paper PMC11417369.
± gives the standard deviation of the averaged measurements. The list shows a part of the results.

Test system: PfAP2-LT AP2 domain (GST-tagged)
Assay: gcPBM binding intensity (ln(normalized median fluorescence intensity)); higher = stronger DNA binding
How it was run: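 Binding intensity is the highest Masliner-normalised natural-log median intensity over replicate spots in either probe orientation. To obtain it, GST-tagged P. falciparum DNA-binding domains made in E. coli were incubated for 1 h on an Agilent 4 × 180k array of primer-extended double-stranded 36-bp intergenic genomic probes plus negative controls. Detection used Alexa488 anti-GST antibody with scanning at 488 nm.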

Sequence | gcPBM binding intensity (ln)
TTAATATGGAAATGTTGTACATTTCTTGAAGCATTC [XGTACX_site525] | 8.47 ± 0.32
ACTTCATAAACATTTTGTACGTATGTATCTTTTTAT [XGTACX_site7012] | 9.18 ± 0.52
TTATTGAAAAACATAATATCTAAGAGGGTAATATAT [GTGCAC_negctrl_site599] | 8.54 ± 0.4
TATATATATATGTACACACACACATATAAATAAATA [CACACA_site443] | 9.66 ± 0.24
TAAAAGGGGATATATGAACACACAAAAAAAAAATAT [CACACA_site8940] | 9.04 ± 0.64
CATATTTTTTCTTAAACACACACATATATATATATA [CACACA_site8920] | 9.27 ± 0.27
TTAAAAAAAAAAAAAAGTACATAAGTATATATAATA [XGTACX_site4295] | 8.56 ± 0.46
ATATTAAGTTTTATTACACACTCTCAATTTTTATTT [CACACA_site4206] | 8.95 ± 0.43
TAAATGTTTCTCAAAAGTACACATGTGATATTTCTT [XGTACX_site2065] | 8.6 ± 0.33
TTAAAAATATTATGTACACACATTTTAGATATTTGT [CACACA_site1846] | 9.04 ± 0.43
TAAATATATATATATTGTACAAAACAAATGTGAATT [XGTACX_site696] | 8.99 ± 0.46
TCCTAATATTTGTCAAATTTCAAAATAAATAAAATG [XGTACX_negctrl_site540] | 8.2 ± 0.31
TAATTAAAATCATATACACACCCATATATATATATA [CACACA_site8524] | 9.525 ± 0.035
ATATAGTAAATGTTCACACATACAAATATATATATA [CACACA_site5518] | 9.05 ± 0.38
AAGTTTTCTTAAAGCTGTACTTTTTAAAAATAAAAT [XGTACX_site7716] | 8.11 ± 0.46
TATATATAATTATAAGAACACACATATATATATATA [CACACA_site8786] | 9.46 ± 0.36
TACAAATATAGATGCACACACATATAGGTATATGTG [CACACA_site7439] | 9.77 ± 0.38
ATATATTTCTGTCAAGCACACATAATATTAATATAT [CACACA_site7993] | 9.14 ± 0.48
AATGATACTTAGGGGCATGTCTCTGGGGGCATAACC [CACACA_negctrl_site591] | 9.27 ± 0.16
CATATTATATTTTCATGTACACATAACATATTTATA [XGTACX_site4787] | 8.76 ± 0.42
GTTATAAACAAAATAAATATATGAATATATAATAAT [XGTACX_negctrl_site96] | 8.71 ± 0.4
ATAATTATTAAGAGAACATGCAAAATATATATGTTT [TGCATGCA_site503] | 8.79 ± 0.42

Sequence | gcPBM binding intensity (ln)
AAAGCACCCAGGCACACACACAAAGGAAAAGAAAAA [CACACA_site232] | 9.79 ± 0.53
ATATATATTTCTTAAAGTACATAATAATAAAAATAT [XGTACX_site8981] | 8.55 ± 0.31
ATTTTATTTTTTTGTGATAATTGATTTATATATTGT [TGCATGCA_negctrl_site563] | 8.72 ± 0.45
AATAGAATAATCCTTACACACACACGCGCACGAATA [CACACA_site6365] | 9.78 ± 0.31
ATTATTTCTTTGTGATGTACAAATAAACATGTTGGT [XGTACX_site5636] | 8.77 ± 0.47
TATATATTACATTGTTGTACATATATATTATATATA [XGTACX_site60] | 8.85 ± 0.39
ATATATATATATATTTGTACGTATTATGTATTTTTT [XGTACX_site3530] | 9.54 ± 0.28
AATACAATAAAATAGTGTACATATATATTATGTATA [XGTACX_site8258] | 8.98 ± 0.44
TTTATATTATACTATACATGCATATAATAAAGGTCA [TGCATGCA_site934] | 8.64 ± 0.28
GAATAAATTAAAAACGCATGTATCATTACTACATAA [TGCATGCA_site111] | 8.72 ± 0.38
TTAAAATATGATATATGTACATAATTACTAAAAACA [XGTACX_site276] | 8.64 ± 0.35
GGGTTCAATTTAAAGAGTACAAAAAATGTAGGTCAT [XGTACX_site5290] | 8.92 ± 0.52
TATTATGCCTTTAATATACACACTAATATTTTTTTG [CACACA_site2045] | 8.84 ± 0.4
ATTTATCCAAAAAAATGTACAGGATAATTTGTTCAT [XGTACX_site7737] | 8.64 ± 0.34
TATAAAAATTAATATTGTACGTTTTATGAAAATAAA [XGTACX_site8237] | 8.21 ± 0.47
CATAATACCTATAACACACACAATTATACATAAACT [CACACA_site7506] | 9.53 ± 0.24
AATATATACATATATTGTACATATAGTTTCTTGCAT [XGTACX_site7871] | 8.97 ± 0.31
AGAGAGAAAGTTATAACATGCAACAATTTTTAGAAC [TGCATGCA_site96] | 8.82 ± 0.52
TTTTTTTTTTTGTGGGTGCGTTTATAAAAACAGGAA | 8.42 ± 0.33
TTTTTTTCTTGTTTTAAATAATATACTGGAAAAAAA [CACACA_negctrl_site585] | 7.88 ± 0.33
TTTCCATATTGTGGATGTACGTTTTGAGGTTTTTAC [XGTACX_site3362] | 8.88 ± 0.42
TTTTAATAAACAAAACGTACACATTATTATTATATA [XGTACX_site335] | 8.51 ± 0.42

Sequence | gcPBM binding intensity (ln)
TTTGTAGTTTGCACATGTACACATTTCAAAATAAAG [XGTACX_site7568] | 8.59 ± 0.36
TATTTGTTGTGAGTCACACATATATATATATATATA [CACACA_site4240] | 9.85 ± 0.23
AAGCTATATATAGGCAGTACTTTGTAAGTGTAGATA [XGTACX_site8365] | 9.04 ± 0.45
TTTTTTATAAAATTTTTTTTTTAAAATATTAAAACT [XGTACX_negctrl_site240] | 7.95 ± 0.61
AAAAAAAAAAAAAAAACACACAGAACAATATATAAA [CACACA_site4698] | 8.89 ± 0.51
TATATGCATATACATACACACATAACACATACGTTT [CACACA_site3832] | 9.28 ± 0.35
ATATGTCACTTGTATACACACATATAGATTTCAATC [CACACA_site7519] | 9.28 ± 0.26
TTTCTAATTCTTAGTGGTACACAGTTCTGCTGATAT [XGTACX_site2391] | 8.64 ± 0.53
TTGTTTTTTTTTGGCTGTACGTTCATAAATTTTTTT [XGTACX_site4165] | 8.82 ± 0.49
TTTTCATAAAATCATTGTACATTTATCGTATATTAA [XGTACX_site3855] | 8.55 ± 0.51
ATATTGTAAGTAAACACACACACATATATATGTATA [CACACA_site8124] | 9.53 ± 0.35
AAAATATCTTATATATGTACATATTTATATTTATAT [XGTACX_site6027] | 8.86 ± 0.39
ACAATTTACACTTAAACACACAAAAAAAAATTATAT [CACACA_site2065] | 8.93 ± 0.42
TGTTTTATTTTATTAGTGCATTTTTATTTATAATAG [GTGCAC_site9453] | 8.63 ± 0.48
AAGGTAGAAATATGTTGTACGGTTTGGAGGAAGCAA [XGTACX_site1105] | 8.77 ± 0.48
GCATCGATCAAACATACACACATGGTTAATAAAAAT [CACACA_site8651] | 9.24 ± 0.47
ACATATATATTCATATGTACATATACATACATACAT [XGTACX_site4563] | 9.13 ± 0.47
GACAAAAAATTAAAATAAAATAATAATATAATAAAA [GTGCAC_negctrl_site234] | 8.55 ± 0.67
ATATAATAGTTATATTGTACATAAATTATACACCTT [XGTACX_site628] | 8.7 ± 0.48
TATAAACACCCATATAAACACACATATAAACCAACA [CACACA_site8790] | 9.31 ± 0.28
ATACGCACACATATATGTACATATTGTATATATATA [XGTACX_site3962] | 9.35 ± 0.44
GGAATGGTACATGATACACACACGCACATATATATA [CACACA_site5825] | 9.45 ± 0.32

Sequence | gcPBM binding intensity (ln)
TATATTAAACAATATACACACATTAATGTATACATA [CACACA_site2755] | 8.89 ± 0.35
AATATATGTATATATTTTTTTTTTTCCCTTACAAAT [GTGCAC_negctrl_site428] | 8.38 ± 0.42
GTTAAAATTGGGGACGCATGTTCCTTTCCTTTTTTT [TGCATGCA_site1002] | 8.48 ± 0.45
TTATAAATGTAACGATGTACTTTTAAAAGTTTCCTT [XGTACX_site109] | 8.57 ± 0.56
ATAGCTGTATTTAATACACACAAAACTTTCATTCCA [CACACA_site5868] | 8.91 ± 0.45
GAGTGAGCTAATAAAAGTACGTAATAAACAAACGCA [XGTACX_site131] | 9.02 ± 0.52
ACCATGAAAATATTATGTACATATGTATTATATATA [XGTACX_site408] | 8.87 ± 0.33
TTTTTTTGTTTTGTTTTTTTTTTTTTTTTTTTTTTG [CACACA_negctrl_site570] | 8.46 ± 0.54
TTACCGTAAAAATTTTGTACATAAAATAATATATAA [XGTACX_site532] | 8.56 ± 0.46
CACATACATATATATACACACAAATATATATACACA [CACACA_site8164] | 9.31 ± 0.34
GTATGTGTGTCAAGTCGTACTTACCTTTAAATTTTT [XGTACX_site2507] | 9.11 ± 0.35
GATATAAAATATTGGTGTACTTTTTTTTTTTTTTTT [XGTACX_site7174] | 8.63 ± 0.39
TTTTTTTTTTTTTTTTTTTCTATTTTACTGTTTCGT [CACACA_negctrl_site850] | 8.46 ± 0.72
ATAATTAATAAATAATGTACATATATATTATATTTT [XGTACX_site8546] | 8.59 ± 0.47
TGTGAAGTACCGAATGTGCACTGTGTGTGTTCTTTT [GTGCAC_site9613] | 9.34 ± 0.43
TATATATATGGACACACACACATATAAATAAATAAA [CACACA_site4406] | 9.71 ± 0.49
TTTTTATATTTTTGCACACATTCTTTACTCTTCAAA [CACACA_site2210] | 9.22 ± 0.42
TTAAAAAAAAAACACACACACATACACATATATATA [CACACA_site3299] | 9.91 ± 0.2
ATGATTATTTTAAAAAGTACTAATTATTATTTTTTT [XGTACX_site7242] | 8.34 ± 0.47
ATACACATTCGAAATAACAAAAAAATACATACACAT [GTGCAC_negctrl_site628] | 9.18 ± 0.35
AAAAAAAATAATAATACACACAATATGATATGTACA [CACACA_site850] | 8.96 ± 0.43
GAATATGAATATTTGCGTACTTATATAACTGTTCTA [XGTACX_site883] | 8.91 ± 0.45
